# In the supplement of paper PMC4967469:
# Lines with a small IC50 respond at low doses; where the fit passes the top or lowest dose, that dose stands as a limit. The AUC spans the tested range (256-fold, ending at the top dose) of the same fit: 1 means no effect, lower means more sensitive. For some of these results: A top dose marked as inferred is not printed in the source and was worked back from the curve model. For some of these results: Where an entry number is given, a second screen of the drug exists; the two often differ.
# Assays:
# Experiment in all cases: Viability of human cancer cell lines after 72 h of drug (GDSC screen)
# [1] = compound: CN1CCN(CCOc2cc(OC3CCOCC3)c3c(Nc4c(Cl)ccc5c4OCO5)ncnc3c2)CC1 [AZD-0530]; details: top dose 2 µM
# Method: (§1)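 Human cancer cell lines in 384-well plates, medium with 10% serum, drug for 72 h over a 256-fold dose range (nine 2-fold or five 4-fold steps up to the top dose). Adherent lines were fixed and stained with the nucleic acid dye Syto60, suspension lines read with resazurin; signal relative to control wells, capped at 0 and 100%. One two-parameter sigmoid per drug and line, fitted in a mixed model over all curves with the slope shared within a line.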
# [2] = compound: C/C(=C\c1csc(C)n1)[C@@H]1C[C@@H]2O[C@]2(C)CCC[C@H](C)[C@H](O)[C@@H](C)C(=O)C(C)(C)[C@@H](O)CC(=O)O1 [Epothilone B]; details: top dose 0.032 µM; top dose inferred
# Method: as §1
# [3] = compound: CC(C)CC(=O)Nc1n[nH]c2c1CN(C(=O)C1CCN(C)CC1)C2(C)C [PHA-793887]; details: top dose 10.24 µM
# Method: as §1
# [4] = compound: C[C@@H](N)c1ccc(C(=O)Nc2ccnc3[nH]ccc23)cc1 [Y-39983]; details: top dose 20 µM; top dose inferred
# Method: as §1
# [5] = compound: CCc1nc(N)nc(N)c1-c1ccc(Cl)cc1 [Pyrimethamine]; details: top dose 20 µM; top dose inferred
# Method: as §1
# [6] = compound: CCCS(=O)(=O)Nc1ccc(F)c(C(=O)c2c[nH]c3ncc(Cl)cc23)c1F [PLX4720]; details: top dose 10 µM
# Method: as §1
# [7] = compound: NC(=O)Nc1sc(-c2ccc(F)cc2)cc1C(N)=O [TPCA-1]; details: top dose 20 µM
# Method: as §1
# [8] = screen: GDSC drug entry 1371, top dose inferred
Cell Line,AUC [1],IC50 [1],AUC [2],AUC [3],IC50 [3],AUC [4],IC50 [4],AUC [5],IC50 [5],AUC ([6]; screen: GDSC drug entry 1036),IC50 ([6]; screen: GDSC drug entry 1036),"AUC [6, 8]","IC50 [6, 8]",AUC [7],IC50 [7],IC50 [2]
"GDM-1 (acute myeloid leukaemia, suspension)",0.676,0.378 µM,0.624,0.719,2.58 µM,0.437,0.848 µM,0.931,> 20 µM,0.976,> 10 µM,0.977,> 10 µM,0.245,0.239 µM,
"GI-1 (glioma, adherent)",0.854,1.48 µM,0.519,0.88,9.81 µM,0.777,7.72 µM,0.97,> 20 µM,0.976,> 10 µM,0.866,8.35 µM,0.842,13.2 µM,0.00225 µM
"GI-ME-N (neuroblastoma, adherent)",0.958,> 2 µM,0.63,0.617,1.51 µM,0.494,1.2 µM,0.519,1.44 µM,0.961,> 10 µM,0.946,> 10 µM,0.714,6.35 µM,0.0052 µM
"GR-ST (lymphoblastic leukaemia, suspension)",0.975,> 2 µM,0.616,0.457,0.478 µM,0.967,> 20 µM,0.438,0.816 µM,0.864,> 10 µM,0.909,> 10 µM,0.765,8.86 µM,0.00446 µM
"GRANTA-519 (B-cell lymphoma, suspension)",0.988,> 2 µM,0.808,0.816,4.97 µM,0.979,> 20 µM,0.979,> 20 µM,0.989,> 10 µM,0.977,> 10 µM,0.909,> 20 µM,0.0146 µM
"H9 (lymphoid neoplasm, suspension)",0.983,> 2 µM,0.641,0.884,7.67 µM,0.928,> 20 µM,0.696,3.95 µM,0.992,> 10 µM,0.969,> 10 µM,0.431,0.839 µM,0.00453 µM
"H-EMC-SS (chondrosarcoma, adherent)",0.977,> 2 µM,0.947,0.884,> 10.2 µM,0.927,> 20 µM,0.981,> 20 µM,0.981,> 10 µM,0.979,> 10 µM,0.58,2.22 µM,> 0.032 µM
"HAL-01 (lymphoblastic leukaemia, suspension)",0.968,> 2 µM,0.66,0.873,7.94 µM,0.974,> 20 µM,0.728,5.08 µM,0.943,> 10 µM,0.972,> 10 µM,0.432,0.834 µM,0.00524 µM
"HC-1 (hairy cell leukaemia, suspension)",0.976,> 2 µM,0.601,0.39,0.324 µM,0.933,> 20 µM,0.74,5.86 µM,0.977,> 10 µM,0.949,> 10 µM,0.468,1.03 µM,0.00375 µM
"HCC1187 (breast, suspension)",0.984,> 2 µM,0.788,0.58,1.05 µM,0.88,18.9 µM,0.907,> 20 µM,0.987,> 10 µM,0.988,> 10 µM,0.815,10.4 µM,0.0133 µM
"HCC1500 (breast, adherent)",0.985,> 2 µM,0.964,0.911,> 10.2 µM,0.981,> 20 µM,0.957,> 20 µM,0.98,> 10 µM,0.985,> 10 µM,0.944,> 20 µM,> 0.032 µM
"HCC2157 (breast, suspension)",0.983,> 2 µM,0.464,0.694,2.31 µM,0.987,> 20 µM,0.959,> 20 µM,0.984,> 10 µM,0.983,> 10 µM,0.987,> 20 µM,0.00159 µM
"HCC2218 (breast, suspension)",0.949,> 2 µM,0.76,0.652,1.89 µM,0.968,> 20 µM,0.967,> 20 µM,0.96,> 10 µM,0.97,> 10 µM,0.963,> 20 µM,0.014 µM
"HD-MY-Z (Hodgkin lymphoma, adherent)",0.978,> 2 µM,0.819,0.514,0.699 µM,0.906,> 20 µM,0.833,13 µM,0.968,> 10 µM,0.932,> 10 µM,0.75,6.59 µM,0.0183 µM
"HDLM-2 (Hodgkin lymphoma, suspension)",0.983,> 2 µM,0.823,0.966,> 10.2 µM,0.989,> 20 µM,0.971,> 20 µM,0.942,> 10 µM,0.958,> 10 µM,0.986,> 20 µM,0.0186 µM
"HL-60 (acute myeloid leukaemia, suspension)",0.99,> 2 µM,0.512,0.672,1.82 µM,0.908,> 20 µM,0.983,> 20 µM,0.989,> 10 µM,0.978,> 10 µM,0.727,5.1 µM,0.00214 µM
"HOP-62 (lung adenocarcinoma, adherent)",0.871,1.87 µM,0.384,0.615,1.32 µM,0.924,> 20 µM,0.728,5.54 µM,0.981,> 10 µM,0.972,> 10 µM,0.932,> 20 µM,0.000961 µM
